Measured values as given in the antibiotic and cytotoxicity screens of Wong et al. (2023).
The other results are listed elsewhere or left out.

Tests used:
HSkMC = human skeletal muscle cells; assay: cytotoxicity call (relative viability < 0.9); conditions: 10 µM
HepG2 = assay: cytotoxicity call (relative viability < 0.9); conditions: 10 µM
S. aureus RN4220 = assay: growth inhibition call (relative growth <= 0.2); conditions: 50 µM

| Structure (SMILES) | cytotoxicity call (HSkMC) | cytotoxicity call (HepG2) | growth inhibition call (S. aureus RN4220) |
| --- | --- | --- | --- |
| COc1ccc(NC(=O)Nc2ccc3c(c2)C(=O)N([C@@H](C)CO)C[C@H](C)[C@H](CN(C)C(=O)NC(C)C)OCCCC[C@@H](C)O3)cc1 | inactive | inactive | inactive |
| Cc1noc(C)c1NC(=O)N(C)C[C@@H]1OCCCC[C@@H](C)Oc2ccc(NC(=O)CCC(F)(F)F)cc2C(=O)N([C@H](C)CO)C[C@H]1C | inactive | inactive | inactive |
| C[C@H](CO)N1C[C@H](C)[C@@H](CN(C)Cc2ccc3c(c2)OCO3)Oc2ccc(NC(=O)CCCN(C)C)cc2C1=O | inactive | inactive | inactive |
| Cn1c(=O)cnn(CCCCN2CCN(c3ncccn3)CC2)c1=O | inactive | inactive | inactive |
| C[C@@H]1CN([C@@H](C)CO)C(=O)c2cccc(NS(=O)(=O)c3cn(C)cn3)c2O[C@H]1CN(C)C(=O)Nc1ccc(F)cc1 | inactive | inactive | inactive |
| O=C(CCCCCC(=O)Nc1ccccc1O)N/N=C/[C@H](O)[C@@H](O)[C@H](O)[C@H](O)CO[C@H]1O[C@H](CO)[C@H](O)[C@H](O)[C@H]1O | inactive | inactive | inactive |
| CCS(=O)(=O)N1CC[C@]2(CC1)CN([C@H](CO)c1c2c2ccc(cc2n1C)OC)S(=O)(=O)c1ccccc1 | inactive | inactive | inactive |
| COc1ccc(CN(C)C[C@H]2OCCCC[C@@H](C)Oc3ccc(NC(=O)Nc4c(C)noc4C)cc3C(=O)N([C@H](C)CO)C[C@@H]2C)cc1 | inactive | inactive | inactive |
| C=CCOC(=O)[C@@H]1[C@H]2C(=O)O[C@H](c3ccccc3)[C@H](c3ccccc3)N2[C@H](c2ccc(OCCOC(=O)[C@H]3C[C@H]4C(=O)N[C@@H](CCCCN(C)C)C(=O)N4[C@H]3c3cccc(OCCO)c3)cc2)[C@@]12C(=O)Nc1ccc(I)cc12 | inactive | inactive | inactive |
| O=C(O)c1cc2cc(Cl)ccc2[nH]1 | inactive | inactive | inactive |
| CCCN(C)C[C@H]1OCCCC[C@H](C)Oc2ccc(NC(=O)CCC(F)(F)F)cc2C(=O)N([C@@H](C)CO)C[C@H]1C | inactive | inactive | inactive |
| C[C@@H]1CN([C@H](C)CO)C(=O)c2cc(NC(=O)c3ccccc3)ccc2O[C@@H](C)CCCCO[C@H]1CN(C)C(=O)c1ccccc1 | inactive | inactive | inactive |
| C[C@@H]1CN([C@@H](C)CO)C(=O)c2cc(NC(=O)Cc3ccccc3)ccc2O[C@@H]1CN(C)Cc1ccc(Oc2ccccc2)cc1 | active | active | inactive |
| O=C(C[C@@H]1CC[C@H]2[C@@H](COC[C@@H](O)CN2C(=O)c2ccncc2)O1)NCc1ccc(-c2ccccc2)cc1 | inactive | inactive | inactive |
| CC1(C)CC(=O)C(=CNC(CO)(CO)CO)C(=O)C1 | inactive | inactive | inactive |
| O=c1[nH]c2ccccc2c(=O)n1CCCO | inactive | inactive | inactive |
| COc1ccc(CN(C)C[C@@H]2OCCCC[C@@H](C)Oc3ccc(NC(=O)Nc4ccccc4)cc3C(=O)N([C@@H](C)CO)C[C@@H]2C)cc1 | inactive | inactive | inactive |
| C[C@H](CO)N1C[C@H](C)[C@@H](CN(C)S(=O)(=O)c2ccc(Cl)cc2)OCCCC[C@H](C)Oc2ccc(NC(=O)Nc3ccc(C(F)(F)F)cc3)cc2C1=O | inactive | inactive | inactive |
| C[C@H](CO)N1C[C@H](C)[C@H](CN(C)Cc2ccc3c(c2)OCO3)Oc2ccc(NS(C)(=O)=O)cc2C1=O | inactive | inactive | inactive |
| COCC#Cc1ccc([C@@H]2[C@H]3CN(C(=O)CN4CCOCC4)CC(=O)N3[C@H]2CO)cc1 | inactive | inactive | inactive |
| COc1ccc(S(=O)(=O)Nc2ccc3c(c2)C(=O)N([C@@H](C)CO)C[C@H](C)[C@@H](CN(C)C(=O)Nc2ccc4c(c2)OCO4)OCCCC[C@@H](C)O3)cc1 | inactive | inactive | inactive |
| O=C1O[C@@H](c2ccccc2)[C@@H](c2ccccc2)N2[C@@H](c3ccc(O)cc3)[C@]3(C(=O)Nc4ccccc43)[C@@H](C(=O)N3CCCCCCC3)[C@H]12 | inactive | inactive | inactive |
| COc1ccc(NC(=O)Nc2ccc3c(c2)C(=O)N([C@H](C)CO)C[C@@H](C)[C@H](CN(C)S(=O)(=O)c2ccc(OC)cc2)OCCCC[C@@H](C)O3)cc1 | inactive | active | inactive |
| C[C@@H]1CCCCO[C@H](CN(C)C(=O)NC2CCCCC2)[C@H](C)CN([C@H](C)CO)C(=O)c2cc(NS(=O)(=O)c3cccs3)ccc2O1 | inactive | inactive | inactive |
| C[C@H](CO)N1C[C@H](C)[C@H](CN(C)C(=O)Cc2ccccc2)OCCCC[C@H](C)Oc2ccc(NC(=O)Nc3cccc4ccccc34)cc2C1=O | inactive | inactive | inactive |
| CC(=O)Oc1cc(C(C)C)c(OCCN(C)C)cc1C.Cl | inactive | inactive | inactive |
| C[C@H]1CN([C@@H](C)CO)C(=O)Cc2cc(NC(=O)Cn3cnnn3)ccc2O[C@H]1CN(C)Cc1ccc(Oc2ccccc2)cc1 | inactive | inactive | inactive |

| Structure (SMILES) | cytotoxicity call (HSkMC) | cytotoxicity call (HepG2) | growth inhibition call (S. aureus RN4220) |
| --- | --- | --- | --- |
| COC1=C(OC)C(=O)C(CCCCCCCCCCO)=C(C)C1=O | active | active | inactive |
| CC(C)C#Cc1cnc2c(c1)C(=O)N([C@H](C)CO)C[C@H](C)[C@@H](CN(C)S(=O)(=O)c1cn(C)cn1)O2 | inactive | inactive | inactive |
| COc1ccc(C#Cc2ccc3c(c2)O[C@H](CN(C)C(=O)c2ccccn2)[C@H](C)CN([C@@H](C)CO)S3(=O)=O)cc1 | inactive | active | inactive |
| CO[C@H]1CN(C)C(=O)c2cc(NC(=O)Nc3ccccc3F)ccc2OC[C@@H](C)N(Cc2ccccc2C(=O)O)C[C@H]1C | inactive | inactive | inactive |
| C[C@@H]1CCCCO[C@H](CN(C)Cc2ccc3c(c2)OCO3)[C@H](C)CN([C@H](C)CO)C(=O)c2cc(NC(=O)Nc3ccc(C(F)(F)F)cc3)ccc2O1 | active | active | inactive |
| C[C@@H]1CCCCO[C@@H](CN(C)S(=O)(=O)c2ccc(Cl)cc2)[C@H](C)CN([C@H](C)CO)C(=O)c2cc(NC(=O)C3CCCCC3)ccc2O1 | inactive | inactive | inactive |
| Cc1cccc(S(=O)(=O)N2C[C@H](O)COC[C@H]3O[C@@H](CC(=O)NCc4ccc5c(c4)OCO5)CC[C@@H]32)c1 | inactive | inactive | inactive |
| C[C@@H]1CCCCO[C@H](CN(C)C(=O)Nc2ccccc2)[C@H](C)CN([C@@H](C)CO)C(=O)c2cc(NC(=O)Nc3ccccc3)ccc2O1 | inactive | inactive | inactive |
| Cn1c(=O)c2c(NCCO)ccnc2n(C)c1=O | inactive | inactive | inactive |
| COc1ccc2c3c([nH]c2c1)[C@H](CO)N(C[C@]13CN(C1)S(=O)(=O)C)C(=O)C1CC1 | inactive | inactive | inactive |
| C[C@H](CO)N1C[C@H](C)[C@@H](CN(C)Cc2ccc(C(F)(F)F)cc2)OCCCC[C@H](C)Oc2ccc(NC(=O)Nc3ccc(C(F)(F)F)cc3)cc2C1=O | inactive | inactive | inactive |
| C[C@H](CO)N1C[C@H](C)[C@@H](CN(C)Cc2ccc(Oc3ccccc3)cc2)Oc2ccc(NS(=O)(=O)c3ccc(Cl)cc3)cc2CC1=O | inactive | inactive | inactive |
| C[C@@H]1CN([C@@H](C)CO)C(=O)c2cccc(NC(=O)C3CCCCC3)c2O[C@@H]1CN(C)S(=O)(=O)c1cn(C)cn1 | inactive | inactive | inactive |
| C[C@@H]1CN([C@@H](C)CO)C(=O)c2cc(NC(=O)Nc3cccc4ccccc34)ccc2O[C@@H]1CN(C)Cc1ccc(-c2ccccc2)cc1 | active | inactive | inactive |
| CC1=NN(C)C(=O)CC1 | inactive | inactive | inactive |
| Cc1ccc(S(=O)(=O)N(C)C[C@@H]2Oc3ncc(C#CCC(C)C)cc3C(=O)N([C@H](C)CO)C[C@H]2C)cc1 | inactive | inactive | inactive |
| Cc1csc2ncnc(Cl)c12 | inactive | inactive | inactive |
| COc1ccc(S(=O)(=O)Nc2ccc3c(c2)C(=O)N([C@@H](C)CO)C[C@H](C)[C@@H](CN(C)Cc2ccccc2)OCCCC[C@@H](C)O3)cc1 | inactive | inactive | inactive |
| Cc1ccc(S(=O)(=O)N(C)C[C@@H]2Oc3ccc(NS(=O)(=O)c4ccc(F)cc4)cc3CC(=O)N([C@H](C)CO)C[C@H]2C)cc1 | inactive | inactive | inactive |
| NCCCCCCNC(=O)[C@H]1C[C@H]2C(=O)N[C@@H](CCCCN)C(=O)N2[C@H]1c1ccc(O)cc1 | inactive | inactive | inactive |
| CC(C)(C)c1cc(C(=O)NN)no1 | inactive | inactive | inactive |
| O=C(NCCN1CCOCC1)c1cccs1 | inactive | inactive | inactive |
| Cc1cnccc1CN1C[C@H](C(=O)O)CC1=O | inactive | inactive | inactive |
| Cc1ccc(S(=O)(=O)N(C)C[C@H]2Oc3ccc(NS(=O)(=O)c4ccccc4)cc3C(=O)N([C@H](C)CO)C[C@@H]2C)cc1 | inactive | inactive | inactive |
| C[C@@H]1CN([C@@H](C)CO)C(=O)c2cc(NC(=O)Cc3ccccc3)ccc2O[C@@H]1CN(C)C(=O)Nc1ccc(C(F)(F)F)cc1 | inactive | inactive | inactive |
| COc1ccc(S(=O)(=O)N(C)C[C@H]2OCCCC[C@@H](C)Oc3ccc(NC(=O)c4ccccc4)cc3C(=O)N([C@H](C)CO)C[C@@H]2C)cc1 | inactive | inactive | inactive |
| C[C@H]1CCCCO[C@H](CN(C)S(=O)(=O)c2ccc(Cl)cc2)[C@@H](C)CN([C@@H](C)CO)C(=O)c2cc(NC(=O)c3ccncc3)ccc2O1 | inactive | inactive | inactive |
